Each compound was assayed on MLKL phosphorylation, HT29-L23 human colorectal adenocarcinoma cells (assay: cells). Details: read-out: pMLKL HCS Cell Assay (IC50, uM).

Question: COc1ncc(-c2cc(Cn3cnc(Cl)c3)c3c(N)ncnn23)cc1C(=O)N[C@@H]1CN(C(=O)C2CC(F)(F)C2)C[C@@H]1F [Example 1706, 5-(4-amino-5-((4-chloro-1H-imidazol-1-yl)methyl)pyrrolo[2,1-f][1,2,4]triazin-7-yl)-N-((3R,4S)-1-(3,3-difluorocyclobutane-1-carbonyl)-4-fluoropyrrolidin-3-yl)-2-methoxynicotinamide] was tested. Which IC50 did it give?
Answer: 0.0075 µM

Question: Which IC50 does the source give for COc1ncc(-c2cc(Cn3cncn3)c3c(N)ncnn23)cc1C(=O)N[C@@H]1CN(C(=O)C2CC(F)(F)C2)C[C@@H]1F [Example 1707, 5-(5-((1H-1,2,4-triazol-1-yl)methyl)-4-aminopyrrolo[2,1-f][1,2,4]triazin-7-yl)-N-((3R,4S)-1-(3,3-difluorocyclobutane-1-carbonyl)-4-fluoropyrrolidin-3-yl)-2-methoxynicotinamide] here?
Answer: 0.012 µM

Question: For COc1ncc(-c2cc(Cn3cnc4ccccc43)c3c(N)ncnn23)cc1C(=O)N[C@@H]1CN(C(=O)C2CC(F)(F)C2)C[C@@H]1F [Example 1708, 5-(5-((1H-benzo[d]imidazol-1-yl)methyl)-4-aminopyrrolo[2,1-f][1,2,4]triazin-7-yl)-N-((3R,4S)-1-(3,3-difluorocyclobutane-1-carbonyl)-4-fluoropyrrolidin-3-yl)-2-methoxynicotinamide], which IC50 is on record?
Answer: 0.063 µM

Question: For COc1ncc(-c2cc(Cn3cccn3)c3c(N)ncnn23)cc1C(=O)N[C@@H]1CN(C(=O)C2CC(F)(F)C2)C[C@@H]1F [Example 1709, 5-(5-((1H-pyrazol-1-yl)methyl)-4-aminopyrrolo[2,1-f][1,2,4]triazin-7-yl)-N-((3R,4S)-1-(3,3-difluorocyclobutane-1-carbonyl)-4-fluoropyrrolidin-3-yl)-2-methoxynicotinamide], which IC50 is on record?
Answer: 0.014 µM

Question: With COc1ncc(-c2cc(Cn3cnnn3)c3c(N)ncnn23)cc1C(=O)N[C@@H]1CN(C(=O)C2CC(F)(F)C2)C[C@@H]1F [Example 1710, 5-(5-((1H-tetrazol-1-yl)methyl)-4-aminopyrrolo[2,1-f][1,2,4]triazin-7-yl)-N-((3R,4S)-1-(3,3-difluorocyclobutane-1-carbonyl)-4-fluoropyrrolidin-3-yl)-2-methoxynicotinamide] as the compound, how does the IC50 read?
Answer: 0.049 µM

Question: COc1ncc(-c2cc(Cn3ncnn3)c3c(N)ncnn23)cc1C(=O)N[C@@H]1CN(C(=O)C2CC(F)(F)C2)C[C@@H]1F [Example 1711, 5-(5-((2H-tetrazol-2-yl)methyl)-4-aminopyrrolo[2,1-f][1,2,4]triazin-7-yl)-N-((3R,4S)-1-(3,3-difluorocyclobutane-1-carbonyl)-4-fluoropyrrolidin-3-yl)-2-methoxynicotinamide] was tested. Which IC50 did it give?
Answer: 0.016 µM

Question: COc1ncc(-c2cc(Cn3cnc(-c4ccccc4)c3)c3c(N)ncnn23)cc1C(=O)N[C@@H]1CN(C(=O)C2CC(F)(F)C2)C[C@@H]1F [Example 1712, 5-(4-amino-5-((4-phenyl-1H-imidazol-1-yl)methyl)pyrrolo[2,1-f][1,2,4]triazin-7-yl)-N-((3R,4S)-1-(3,3-difluorocyclobutane-1-carbonyl)-4-fluoropyrrolidin-3-yl)-2-methoxynicotinamide] was tested. Which IC50 did it give?
Answer: 0.075 µM

Question: For COc1ncc(-c2cc(Cn3cncc3-c3ccccc3)c3c(N)ncnn23)cc1C(=O)N[C@@H]1CN(C(=O)C2CC(F)(F)C2)C[C@@H]1F [Example 1713, 5-(4-amino-5-((5-phenyl-1H-imidazol-1-yl)methyl)pyrrolo[2,1-f][1,2,4]triazin-7-yl)-N-((3R,4S)-1-(3,3-difluorocyclobutane-1-carbonyl)-4-fluoropyrrolidin-3-yl)-2-methoxynicotinamide], which IC50 is on record?
Answer: 0.143 µM

Question: With CONCc1cc(-c2cnc(OC)c(C(=O)N[C@@H]3CN(C(=O)C4CC(F)(F)C4)C[C@@H]3F)c2)n2ncnc(N)c12 [Example 1714, 5-(4-amino-5-((methoxyamino)methyl)pyrrolo[2,1-f][1,2,4]triazin-7-yl)-N-((3R,4S)-1-(3,3-difluorocyclobutane-1-carbonyl)-4-fluoropyrrolidin-3-yl)-2-methoxynicotinamide] as the compound, how does the IC50 read?
Answer: 0.0078 µM

— patent publication US11618753B2 (priority 2018, dated 2023)
